# The other results are listed elsewhere or left out. These are enrichments in a pooled selection; single values are uncertain.
# System: SARS-CoV-2 3CLpro (nsp5)
# Test: substrate phage enrichment score (protease-eluted vs HEPES control, +1 offset) (ratio); higher = better cleaved substrate
# Details: selection round: 3; protease elution time: 0.5 h
# Description: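 Random heptapeptide substrate phage display (M13 pIII fusion, heptapeptide between an N-terminal biotinylated AviTag GLNDIFEAQKIEWHE and pIII; phages immobilised on streptavidin) eluted by cleavage with 50 nM protease in 20 mM HEPES at 37 °C. Selected phages were NGS sequenced, and the enrichment score is (reads in protease sample + 1)/(reads in HEPES blank-selection control + 1).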
row,Substance,substrate phage enrichment score
1,HATAHHH,3.6
2,RSCVLQG,> 77
3,KADCVNW,2.92
4,QTSCNVC,4.86
5,SASLPRQ,> 30
6,CPAAHHH,1.17
7,AAAHHQH,1
8,EGAAHHH,8
9,GIPPYAQ,2.33
10,RRESHKS,> 39
11,TRSNLTG,> 21
12,TCRTTLQ,> 121
13,AARTQNW,14
14,AMLQSKS,20.7
15,ICEPYMN,9
16,PEHCQLD,7.67
17,FITHGLM,7
18,ETSRPMQ,6.67
19,RGNKYNR,10
20,SAAAHQQ,1.17
21,ATSDVWQ,4.4
22,TSCLHGV,> 36
23,VHFQGGS,4

row,Substance,substrate phage enrichment score
1,GSAAAHQ,0.824
2,PAQVGPP,0.378
3,SPRNHQG,3.75
4,CQASGQS,9
5,HSQRSIP,4.6
6,CTGEPIR,0.103
7,KNDSYKP,1.12
8,KRRPAMQ,> 22
9,LSSPGMS,> 26
10,RECVVLM,> 28
11,MPMLQSG,> 27
12,KREPQYA,1.5
13,SCIFRVV,1.85
14,NPATMLQ,18.5
15,STAAHHH,1.32
16,AVEHATQ,1.6
17,YVAAHHH,0.706
18,VFQGGSA,2.05
19,SSSACSK,0.75
20,PPVAALQ,> 25
21,NPSCTKW,0.762
22,AYAGETR,6.67
23,DLSGRSR,> 25

row,Substance,substrate phage enrichment score
1,TGVSRNL,1.37
2,RNGNRAT,> 31
3,SYNGTNL,1.88
4,QAEWNYV,> 30
5,HATQEPY,0.0476
6,TRTSMKQ,1.16
7,MQECHCP,3.44
8,VGRTSLQ,> 66
9,AMAAHHH,1.67
10,KPAPSSP,5
11,ESIPTAS,2.26
12,NAVPFLR,> 46
13,LNVEDTA,0.941
14,NSGELDT,16.5
15,INSPLLQ,> 24
16,RRRPSLQ,> 63
17,AFQGGSA,0.667
18,TKLQKNP,> 24
19,WLGNLQN,6.5
20,LLSPNRC,> 27
21,QNISGQW,1.09
22,LPPTDSW,5
23,GLQEMDE,> 23

row,Substance,substrate phage enrichment score
1,VKKDVSD,> 30
2,SELKGTD,> 39
3,QFRGKNT,0.1
4,FGFSRLQ,> 36
5,NYREAAC,> 33
6,KDTLCKM,2
7,MRTVLPS,> 21
8,TEAAHHH,0.57
9,ERALNLD,> 32
10,SQETTCQ,1.88
11,GRECTLQ,> 40
12,LNFQGGS,1.71
13,RNRRERC,1.56
14,LYFQGGR,0.846
15,GRTSSSP,1.38
16,ALKPLTK,> 23
17,KRQYMLS,> 35
18,TVLIKTQ,1.67
19,ESHAERS,0.25
20,TSAAHHH,1.5
21,SCAPTLR,> 26
22,CATAHHH,2.58
23,PRSMKIE,> 22

row,Substance,substrate phage enrichment score
1,SKGGCTL,0.522
2,SFQGGSA,0.727
3,RPAAHHH,1.3
4,TYPQAQH,1.18
5,LQANGQQ,> 37
6,SPNNSLC,23.5
7,RAAAPHH,1.11
8,TNFQGGS,3
9,SAPLGNR,> 27
10,IFRVVVR,0.525
11,CVMKTGP,1.79
12,PNTDVNN,3.6
13,GHGQTSA,8.33
14,RPYFQGG,2.57
15,LSPTVLH,> 39
16,WRDTNLQ,4.5
17,RNMTEWS,3.8
18,HLGNSAR,1.4
19,KTTLKPG,17
20,SRESQCN,3.25
21,SADAHHH,1.19
22,NTTAHHH,0.429
23,GRAAAHH,1.07

row,Substance,substrate phage enrichment score
1,NKTTLMN,> 22
2,WQPSKLQ,> 104
3,GDTAHWR,2.31
4,QRFNVTD,> 29
5,PHHHHGA,1
6,EEAAHHH,0.643
7,KQYFQGG,0.577
8,SRCSCAH,> 37
9,TTSKSLY,6.67
10,RTFTHRG,12
11,DHHHGAA,5.17
12,SILQGSA,17.5
13,CAWPIHR,3.67
14,FSFEPGP,> 21
15,VKSAYDT,11
16,WLLESGG,3.62
17,SNTDAPE,5
18,VMMMCGR,1.32
19,AEQCGTS,> 24
20,FTAAHHH,1.21
21,QYFQGGS,1.29
22,DFTPTAR,3.29
23,TGRIGNC,0.529

row,Substance,substrate phage enrichment score
1,PSYAIFQ,> 31
2,LETKLQS,> 47
3,LQNLNPT,0.4
4,HGQLNVN,> 36
5,LTGESWH,15.5
6,SAAAHNN,0.733
7,SAAPHHQ,1.13
8,KHGQPCR,> 23
9,CPHESRS,> 69
10,PSTRLQS,> 160
11,SAAHHHH,1.04
12,EGSRAPC,3.39
13,RAAAQHH,0.911
14,RVPLSRN,1.64
15,VVAAHHH,0.6
16,AESRMDL,2.5
17,CERAVMQ,0.685
18,GCPTSKA,> 22
19,KWSGPRL,> 51
20,ERHTPAL,1.38
21,GKSQNPR,2.36

# From the supplement of paper PMC10185492
